Some of the results follow. The full chains were built here from the parent and the listed change. Inactive controls read about 0.05.
B1: TEV protease; numbered along this chain (parent)
chain: MGESLFKGPRDYNPISSSICHLTNESDGHTTSLYGIGFGPFIITNKHLFRRNNGTLVVQSLHGVFKVKDTTTLQQHLVDGRDMIIIRMPKDFPPFPQKLKFREPQREERICLVTTNFQTKSMSSMVSDTSCTFPSGDGIFWKHWIQTKDGQCGSPLVSTRDGFIVGIHSASNFTNTNNYFTSVPKNFMELLTNQEAQQWVSGWRLNADSVLWGGHKVFMVKPEEPFQPVKEATQL

Variants of: B1
Test: raw area under fraction-flipped curve 0-4 h after induction (AUC4h, not background-subtracted), DNA-recorder readout of cleavage of the substrate (dimensionless); higher = more cleavage of the substrate by the protease variant
Details: temperature: 34 °C; time window: 0-4 h after rhamnose induction
Description: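 In vivo DNA recorder in E. coli TOP10(DE3) ΔrhaA at 34 °C. Each TEVp single-site mutant (parent TEVp 0) is paired with a single-site variant of the 7-mer TEVs (canonical ENLYFQ|S). The substrate sits between flexible linkers in a Bxb1-sfGFP-TEVs-SsrA fusion, so cleavage stabilises Bxb1 and speeds flipping of a recombination array, read by NGS. The value is the raw area under the fraction-flipped curve over 0-4 h after rhamnose induction (AUC4h), with ≥20 reads per time point. It is not background-subtracted; inactive controls average about 0.047.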
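Further: Bxb1 expression induced with 0.2% (w/v) L-rhamnose at OD600 near 0.5, cultures sampled hourly, flipped fraction per protease–substrate barcode pair counted by paired-end Illumina sequencing.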

In the case of E195K, the “area with substrate CNLYFQS” value is reported as 0.0677, the “area with substrate DNLYFQS” value is reported as 0.0749 and the “area with substrate FNLYFQS” value is reported as 0.0664. The “area with substrate GNLYFQS” value was 0.0785, the “area with substrate HNLYFQS” value was 0.0654 and the “area with substrate INLYFQS” value was 0.0427. For the same variant, the “area with substrate LNLYFQS” value was 0.056, the “area with substrate NNLYFQS” value was 0.0603 and the “area with substrate PNLYFQS” value was 0.0611. For the same variant, the “area with substrate QNLYFQS” value was 0.0633, the “area with substrate RNLYFQS” value was 0.0656 and the “area with substrate SNLYFQS” value was 0.0699. For the same variant, the “area with substrate TNLYFQS” value was 0.0682, the “area with substrate WNLYFQS” value was 0.0613 and the “area with substrate YNLYFQS” value was 0.0614.

In the case of P222D, the “area with substrate CNLYFQS” value is reported as 0.0667, the “area with substrate DNLYFQS” value is reported as 0.0762 and the “area with substrate FNLYFQS” value is reported as 0.0494. For the same variant, the “area with substrate HNLYFQS” value was 0.0518, the “area with substrate INLYFQS” value was 0.0606 and the “area with substrate LNLYFQS” value was 0.0643. The “area with substrate MNLYFQS” value was 0.0711, the “area with substrate PNLYFQS” value was 0.0524 and the “area with substrate TNLYFQS” value was 0.0595. The “area with substrate WNLYFQS” value was 0.0566 and the “area with substrate YNLYFQS” value was 0.0661.

With P222F the “area with substrate CNLYFQS” value was 0.0678, the “area with substrate DNLYFQS” value was 0.0712 and the “area with substrate GNLYFQS” value was 0.0585. For the same variant, the “area with substrate HNLYFQS” value was 0.0622, the “area with substrate INLYFQS” value was 0.0616 and the “area with substrate KNLYFQS” value was 0.0691. For the same variant, the “area with substrate LNLYFQS” value was 0.0674, the “area with substrate MNLYFQS” value was 0.0652 and the “area with substrate NNLYFQS” value was 0.0562. For the same variant, the “area with substrate PNLYFQS” value was 0.063, the “area with substrate QNLYFQS” value was 0.0474 and the “area with substrate SNLYFQS” value was 0.051. For the same variant, the “area with substrate TNLYFQS” value was 0.056, the “area with substrate VNLYFQS” value was 0.058 and the “area with substrate WNLYFQS” value was 0.0605. For the same variant, the “area with substrate YNLYFQS” value was 0.0574.

With S201R the “area with substrate CNLYFQS” value was 0.0672, the “area with substrate DNLYFQS” value was 0.0909 and the “area with substrate FNLYFQS” value was 0.0654. For the same variant, the “area with substrate HNLYFQS” value was 0.0672, the “area with substrate INLYFQS” value was 0.0544 and the “area with substrate LNLYFQS” value was 0.0434. The “area with substrate MNLYFQS” value was 0.0684, the “area with substrate NNLYFQS” value was 0.0621 and the “area with substrate PNLYFQS” value was 0.059. The “area with substrate QNLYFQS” value was 0.0786, the “area with substrate SNLYFQS” value was 0.0616 and the “area with substrate TNLYFQS” value was 0.0601. For the same variant, the “area with substrate WNLYFQS” value was 0.0648 and the “area with substrate YNLYFQS” value was 0.0704.

For G166A, the “area with substrate CNLYFQS” value was 0.0498, the “area with substrate DNLYFQS” value was 0.0552 and the “area with substrate GNLYFQS” value was 0.0427. The “area with substrate HNLYFQS” value was 0.0496, the “area with substrate INLYFQS” value was 0.0455 and the “area with substrate KNLYFQS” value was 0.0631. For the same variant, the “area with substrate LNLYFQS” value was 0.0514, the “area with substrate NNLYFQS” value was 0.0477 and the “area with substrate SNLYFQS” value was 0.0503. For the same variant, the “area with substrate TNLYFQS” value was 0.047, the “area with substrate VNLYFQS” value was 0.057 and the “area with substrate WNLYFQS” value was 0.0349. The “area with substrate YNLYFQS” value was 0.0288.

For G166M, the “area with substrate CNLYFQS” value was 0.0462, the “area with substrate DNLYFQS” value was 0.0433 and the “area with substrate FNLYFQS” value was 0.0331. The “area with substrate GNLYFQS” value was 0.0428, the “area with substrate HNLYFQS” value was 0.0584 and the “area with substrate INLYFQS” value was 0.0416. For the same variant, the “area with substrate LNLYFQS” value was 0.0454, the “area with substrate MNLYFQS” value was 0.0367 and the “area with substrate PNLYFQS” value was 0.0473. For the same variant, the “area with substrate QNLYFQS” value was 0.019, the “area with substrate TNLYFQS” value was 0.0536 and the “area with substrate WNLYFQS” value was 0.0585. For the same variant, the “area with substrate YNLYFQS” value was 0.0351.

With G166D the “area with substrate CNLYFQS” value was 0.0555, the “area with substrate DNLYFQS” value was 0.0434 and the “area with substrate FNLYFQS” value was 0.0518. For the same variant, the “area with substrate GNLYFQS” value was 0.0422, the “area with substrate HNLYFQS” value was 0.0552 and the “area with substrate INLYFQS” value was 0.0525. The “area with substrate KNLYFQS” value was 0.0681, the “area with substrate LNLYFQS” value was 0.0481 and the “area with substrate MNLYFQS” value was 0.0462. The “area with substrate PNLYFQS” value was 0.0526, the “area with substrate RNLYFQS” value was 0.0546 and the “area with substrate SNLYFQS” value was 0.0584. The “area with substrate TNLYFQS” value was 0.0611, the “area with substrate WNLYFQS” value was 0.0353 and the “area with substrate YNLYFQS” value was 0.0489.

With T176K the “area with substrate CNLYFQS” value was 0.0831, the “area with substrate DNLYFQS” value was 0.068 and the “area with substrate HNLYFQS” value was 0.0603. The “area with substrate INLYFQS” value was 0.0612, the “area with substrate KNLYFQS” value was 0.0694 and the “area with substrate LNLYFQS” value was 0.0653. The “area with substrate MNLYFQS” value was 0.0487, the “area with substrate PNLYFQS” value was 0.0391 and the “area with substrate QNLYFQS” value was 0.0486. The “area with substrate SNLYFQS” value was 0.0734 and the “area with substrate VNLYFQS” value was 0.0598.

In the case of L191F, the “area with substrate CNLYFQS” value is reported as 0.0554, the “area with substrate DNLYFQS” value is reported as 0.0731 and the “area with substrate FNLYFQS” value is reported as 0.0716. The “area with substrate GNLYFQS” value was 0.0593, the “area with substrate HNLYFQS” value was 0.0597 and the “area with substrate INLYFQS” value was 0.056. The “area with substrate LNLYFQS” value was 0.0576, the “area with substrate MNLYFQS” value was 0.0562 and the “area with substrate NNLYFQS” value was 0.0693. The “area with substrate PNLYFQS” value was 0.0585, the “area with substrate RNLYFQS” value was 0.0575 and the “area with substrate SNLYFQS” value was 0.0644. The “area with substrate TNLYFQS” value was 0.0635, the “area with substrate VNLYFQS” value was 0.0713 and the “area with substrate WNLYFQS” value was 0.0569. For the same variant, the “area with substrate YNLYFQS” value was 0.0572.

In the case of L191A, the “area with substrate CNLYFQS” value is reported as 0.079, the “area with substrate DNLYFQS” value is reported as 0.0583 and the “area with substrate GNLYFQS” value is reported as 0.0495. The “area with substrate HNLYFQS” value was 0.0534, the “area with substrate NNLYFQS” value was 0.0529 and the “area with substrate TNLYFQS” value was 0.0637. The “area with substrate YNLYFQS” value was 0.0502.

In the case of L191Y, the “area with substrate CNLYFQS” value is reported as 0.0666, the “area with substrate DNLYFQS” value is reported as 0.0571 and the “area with substrate FNLYFQS” value is reported as 0.0535. The “area with substrate GNLYFQS” value was 0.0072, the “area with substrate HNLYFQS” value was 0.0629 and the “area with substrate KNLYFQS” value was 0.0703. For the same variant, the “area with substrate MNLYFQS” value was 0.0503, the “area with substrate PNLYFQS” value was 0.0567 and the “area with substrate QNLYFQS” value was 0.0646. The “area with substrate SNLYFQS” value was 0.0576, the “area with substrate TNLYFQS” value was 0.056 and the “area with substrate WNLYFQS” value was 0.0384. For the same variant, the “area with substrate YNLYFQS” value was 0.0549.

In the case of L191K, the “area with substrate CNLYFQS” value is reported as 0.0561, the “area with substrate DNLYFQS” value is reported as 0.0456 and the “area with substrate FNLYFQS” value is reported as 0.0533. The “area with substrate GNLYFQS” value was 0.0451, the “area with substrate HNLYFQS” value was 0.0599 and the “area with substrate INLYFQS” value was 0.0336. For the same variant, the “area with substrate KNLYFQS” value was 0.0587, the “area with substrate MNLYFQS” value was 0.0507 and the “area with substrate NNLYFQS” value was 0.0495. For the same variant, the “area with substrate PNLYFQS” value was 0.0628, the “area with substrate RNLYFQS” value was 0.0334 and the “area with substrate TNLYFQS” value was 0.0617. The “area with substrate WNLYFQS” value was 0.0519 and the “area with substrate YNLYFQS” value was 0.0504.

In the case of D161A, the “area with substrate CNLYFQS” value is reported as 0.0591, the “area with substrate DNLYFQS” value is reported as 0.0598 and the “area with substrate FNLYFQS” value is reported as 0.049. For the same variant, the “area with substrate INLYFQS” value was 0.0505, the “area with substrate KNLYFQS” value was 0.0492 and the “area with substrate LNLYFQS” value was 0.051. The “area with substrate MNLYFQS” value was 0.0573, the “area with substrate NNLYFQS” value was 0.061 and the “area with substrate PNLYFQS” value was 0.0384. The “area with substrate SNLYFQS” value was 0.0626, the “area with substrate TNLYFQS” value was 0.0436 and the “area with substrate WNLYFQS” value was 0.0533.

Source: the supplement of paper PMC12217912
